# Assay results: a collection of fitness landscapes (doi:10.1126/science.1257360)
# Some of the results follow.
# B1: PhoQ; a variant is named by its letters at X, in order, P23837 (parent)
# chain: MKKLLRLFFPLSLRVRFLLATAAVVLVLSLAYGMVALIGYSVSFDKTTFRLLRGESNLFYTLAKWENNKLHVELPENIDKQSPTMTLIYDENGQLLWAQRDVPWLMKMIQPDWLKSNGFHEIEADVNDTSLLLSGDHSIQQQLQEVREDDDDAEMTHSVAVNVYPATSRMPKLTIVVVDTIPVELKSSYMVWSWFIYVLSANLLLVIPLLWVAAWWSLRPIEALAKEVRELEEHNRELLNPATTRELTSLVRNLNRLLKSERERYDKYRTTLTDLTHSLKTPLXXLQXXLRSLRSEKMSVSDAEPVMLEQISRISQQIGYYLHRASMRGGTLLSRELHPVAPLLDNLTSALNKVYQRKGVNISLDISPEISFVGEQNDFVEVMGNVLDNACKYCLEFVEISARQTDEHLYIVVEDDGPGIPLSKREVIFDRGQRVDTLRPGQGVGLAVAREITEQYEGKIVAGESMLGGARMEVIFGRQHSAPKDE
# Variants of: B1
# Experiment: enrichment ratio after two sorts for PhoP signalling (ratio (wild type AVST 3.29)); higher = more functional
# Conditions: with PhoP (E. coli)
row,Variant,enrichment ratio
1,NEEF,≤ 0.25
2,DGLC,≤ 0.25
3,GHWR,≤ 0.25
4,NMMW,≤ 0.25
5,TGHD,≤ 0.25
6,YLPQ,≤ 0.25
7,MMLN,≤ 0.25
8,LWYP,≤ 0.25
9,MQGC,≤ 0.25
10,HKII,≤ 0.25
11,PIRN,≤ 0.25
12,HTCL,≤ 0.25
13,EIPD,≤ 0.25
14,VGSD,≤ 0.25
15,GKFV,≤ 0.25
16,MHST,≤ 0.25
17,FFYG,≤ 0.25
18,PRGF,≤ 0.25
19,VWPN,≤ 0.25
20,LYHV,≤ 0.25
21,VALW,≤ 0.25
22,HMGK,≤ 0.25
23,DLSI,≤ 0.25
24,MMAK,≤ 0.25
25,IPPP,≤ 0.25
26,TKWW,≤ 0.25

row,Variant,enrichment ratio
1,HYKR,≤ 0.25
2,SPQP,≤ 0.25
3,IDRY,≤ 0.25
4,NPYQ,≤ 0.25
5,LCHE,≤ 0.25
6,PFGW,≤ 0.25
7,DMTV,≤ 0.25
8,CAIY,≤ 0.25
9,MFPI,≤ 0.25
10,WLYS,≤ 0.25
11,IDPG,≤ 0.25
12,GMDG,≤ 0.25
13,YVQP,≤ 0.25
14,DVGI,≤ 0.25
15,YVHF,≤ 0.25
16,ALMQ,2.62
17,SRTC,≤ 0.25
18,WWYA,≤ 0.25
19,TDVH,10.9
20,KTMD,≤ 0.25
21,WTMV,≤ 0.25
22,HGNW,≤ 0.25
23,MCMT,≤ 0.25
24,WGGY,≤ 0.25
25,YDWP,≤ 0.25
26,ELKM,≤ 0.25

row,Variant,enrichment ratio
1,ISAS,≤ 0.25
2,AHKH,≤ 0.25
3,LWVG,≤ 0.25
4,RYHD,≤ 0.25
5,VWMK,≤ 0.25
6,VICT,≤ 0.25
7,PRDN,≤ 0.25
8,TMQH,4.24
9,ITMC,≤ 0.25
10,VQCK,≤ 0.25
11,GKCY,≤ 0.25
12,DEVC,≤ 0.25
13,PQAR,≤ 0.25
14,GCFY,≤ 0.25
15,NFAN,≤ 0.25
16,QVKF,≤ 0.25
17,HPES,≤ 0.25
18,RPTA,≤ 0.25
19,FDYL,≤ 0.25
20,VQLC,≤ 0.25
21,AWHC,≤ 0.25
22,YFRC,≤ 0.25
23,KAHI,≤ 0.25
24,TIFA,≤ 0.25
25,FKHG,≤ 0.25
